31 molecules from article PMC9911399, “Two distinct binding modes provide the RNA-binding protein RbFox with extraordinary sequence specificity” can be followed below.

T1: RBFOX1 RRM RbFoxmut (Fox-RRM*) (Homo sapiens, UniProt Q9NWB1 109-208, R118D;E147R;N151S;E152T)
T1 sequence: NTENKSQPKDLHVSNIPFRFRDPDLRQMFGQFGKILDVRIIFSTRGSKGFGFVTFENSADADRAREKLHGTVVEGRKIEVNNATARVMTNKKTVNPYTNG

B1: UGAAUGC (DNA:RNA)
RNA: GGGAGACCGGAAUUCAGAUUGUCCUGAAUGCUUAAAUCCCGUCGUAGCCACCA
DNA 1: CAATCTGAATTCCGGTCTCCC
DNA 2: TGGTGGCTACGACGGGATT
B2: UCCGAUU (DNA:RNA)
RNA: B1 RNA with G26C, A27C, A28G, U29A, G30U, C31U
DNA 1: CAATCTGAATTCCGGTCTCCC
DNA 2: TGGTGGCTACGACGGGATT
B3: GAUAGGU (DNA:RNA)
RNA: B1 RNA with U25G, G26A, A27U, U29G, C31U
DNA 1: CAATCTGAATTCCGGTCTCCC
DNA 2: TGGTGGCTACGACGGGATT
B4: ACCGUGU (DNA:RNA)
RNA: B1 RNA with U25A, G26C, A27C, A28G, C31U
DNA 1: CAATCTGAATTCCGGTCTCCC
DNA 2: TGGTGGCTACGACGGGATT
B5: UGCGGAC (DNA:RNA)
RNA: B1 RNA with A27C, A28G, U29G, G30A
DNA 1: CAATCTGAATTCCGGTCTCCC
DNA 2: TGGTGGCTACGACGGGATT
B6: GUGUGAG (DNA:RNA)
RNA: GGGAGACCGGAAUUCAGAUUGUCCGUGUGAGUUAAAUCCCGUCGUAGCCACCA
DNA 1: CAATCTGAATTCCGGTCTCCC
DNA 2: TGGTGGCTACGACGGGATT
B7: CACUUCG (DNA:RNA)
RNA: B6 RNA with G25C, U26A, G27C, G29U, A30C
DNA 1: CAATCTGAATTCCGGTCTCCC
DNA 2: TGGTGGCTACGACGGGATT
B8: CUUACGC (DNA:RNA)
RNA: B1 RNA with U25C, G26U, A27U, U29C
DNA 1: CAATCTGAATTCCGGTCTCCC
DNA 2: TGGTGGCTACGACGGGATT
B9: GAUAGUA (DNA:RNA)
RNA: B6 RNA with U26A, G27U, U28A, A30U, G31A
DNA 1: CAATCTGAATTCCGGTCTCCC
DNA 2: TGGTGGCTACGACGGGATT
B10: UCUGCAC (DNA:RNA)
RNA: B1 RNA with G26C, A27U, A28G, U29C, G30A
DNA 1: CAATCTGAATTCCGGTCTCCC
DNA 2: TGGTGGCTACGACGGGATT
B11: UCAUCCA (DNA:RNA)
RNA: B1 RNA with G26C, A28U, U29C, G30C, C31A
DNA 1: CAATCTGAATTCCGGTCTCCC
DNA 2: TGGTGGCTACGACGGGATT
B12: AAACGCC (DNA:RNA)
RNA: B1 RNA with U25A, G26A, A28C, U29G, G30C
DNA 1: CAATCTGAATTCCGGTCTCCC
DNA 2: TGGTGGCTACGACGGGATT
B13: GGACAAA (DNA:RNA)
RNA: B6 RNA with U26G, G27A, U28C, G29A, G31A
DNA 1: CAATCTGAATTCCGGTCTCCC
DNA 2: TGGTGGCTACGACGGGATT
B14: AAGAUGA (DNA:RNA)
RNA: B1 RNA with U25A, G26A, A27G, C31A
DNA 1: CAATCTGAATTCCGGTCTCCC
DNA 2: TGGTGGCTACGACGGGATT
B15: AGGUGAC (DNA:RNA)
RNA: B6 RNA with G25A, U26G, G31C
DNA 1: CAATCTGAATTCCGGTCTCCC
DNA 2: TGGTGGCTACGACGGGATT
B16: GGUUGGC (DNA:RNA)
RNA: B6 RNA with U26G, G27U, A30G, G31C
DNA 1: CAATCTGAATTCCGGTCTCCC
DNA 2: TGGTGGCTACGACGGGATT
B17: UGGUGGG (DNA:RNA)
RNA: B6 RNA with G25U, U26G, A30G
DNA 1: CAATCTGAATTCCGGTCTCCC
DNA 2: TGGTGGCTACGACGGGATT
B18: UUCCAAA (DNA:RNA)
RNA: B6 RNA with G25U, G27C, U28C, G29A, G31A
DNA 1: CAATCTGAATTCCGGTCTCCC
DNA 2: TGGTGGCTACGACGGGATT
B19: CAGCUCG (DNA:RNA)
RNA: B6 RNA with G25C, U26A, U28C, G29U, A30C
DNA 1: CAATCTGAATTCCGGTCTCCC
DNA 2: TGGTGGCTACGACGGGATT
B20: UCGCGCG (DNA:RNA)
RNA: B6 RNA with G25U, U26C, U28C, A30C
DNA 1: CAATCTGAATTCCGGTCTCCC
DNA 2: TGGTGGCTACGACGGGATT
B21: GGGCCAU (DNA:RNA)
RNA: B6 RNA with U26G, U28C, G29C, G31U
DNA 1: CAATCTGAATTCCGGTCTCCC
DNA 2: TGGTGGCTACGACGGGATT
B22: AUCAACC (DNA:RNA)
RNA: B1 RNA with U25A, G26U, A27C, U29A, G30C
DNA 1: CAATCTGAATTCCGGTCTCCC
DNA 2: TGGTGGCTACGACGGGATT
B23: CGUCGAU (DNA:RNA)
RNA: B6 RNA with G25C, U26G, G27U, U28C, G31U
DNA 1: CAATCTGAATTCCGGTCTCCC
DNA 2: TGGTGGCTACGACGGGATT
B24: UGACGCU (DNA:RNA)
RNA: B1 RNA with A28C, U29G, G30C, C31U
DNA 1: CAATCTGAATTCCGGTCTCCC
DNA 2: TGGTGGCTACGACGGGATT
B25: UCACGUU (DNA:RNA)
RNA: B1 RNA with G26C, A28C, U29G, G30U, C31U
DNA 1: CAATCTGAATTCCGGTCTCCC
DNA 2: TGGTGGCTACGACGGGATT
B26: AUCGCAC (DNA:RNA)
RNA: B6 RNA with G25A, G27C, U28G, G29C, G31C
DNA 1: CAATCTGAATTCCGGTCTCCC
DNA 2: TGGTGGCTACGACGGGATT
B27: GCACUAC (DNA:RNA)
RNA: B1 RNA with U25G, G26C, A28C, G30A
DNA 1: CAATCTGAATTCCGGTCTCCC
DNA 2: TGGTGGCTACGACGGGATT
B28: AGUAGCA (DNA:RNA)
RNA: B1 RNA with U25A, A27U, U29G, G30C, C31A
DNA 1: CAATCTGAATTCCGGTCTCCC
DNA 2: TGGTGGCTACGACGGGATT
B29: UGCUGGC (DNA:RNA)
RNA: B1 RNA with A27C, A28U, U29G
DNA 1: CAATCTGAATTCCGGTCTCCC
DNA 2: TGGTGGCTACGACGGGATT
B30: UGAGCGC (DNA:RNA)
RNA: B1 RNA with A28G, U29C
DNA 1: CAATCTGAATTCCGGTCTCCC
DNA 2: TGGTGGCTACGACGGGATT
B31: CGUUGGG (DNA:RNA)
RNA: B6 RNA with G25C, U26G, G27U, A30G
DNA 1: CAATCTGAATTCCGGTCTCCC
DNA 2: TGGTGGCTACGACGGGATT

Positions count from the first letter of the chain named. Some of the results follow.

The target of this assay is T1, RBFOX1 RRM RbFoxmut (Fox-RRM*). As to the kind of experiment: EMSA; HiTS-Eq, 1 nM pool, 10 min; buffer printed only for the single-RNA assays: 10 mM Tris pH 7.5, 150 mM NaCl, 3.4 mM EDTA, 0.001% NP-40, 30 C. The note with it: tags: His6 N-terminal (pET28a); label: 5' 32P. A digest of the protocol: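 A pool of RNA with 7 randomized nucleotides, 5′-radiolabelled and with DNA-annealed flanks, was equilibrated at 1 nM for 10 min in 50 µL with purified RbFox RRM, wild type or mutant, across increasing protein concentrations. Free RNA was separated by 8% native PAGE, excised, reverse-transcribed, barcoded by PCR and sequenced. Relative association constants were obtained from read-count changes of each RNA species versus the control reaction and normalised to the cognate motif.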
(In general: In EMSA bound probe runs differently from free probe, usually more slowly.)
With B1, the binding signal was 0.485 KA relative to UGCAUGU.
In the case of B2 it was 0.0694 KA relative to UGCAUGU; in that of B3, 0.0884 KA relative to UGCAUGU.
Under B4 stands 0.143 KA relative to UGCAUGU; under B5, 0.083 KA relative to UGCAUGU; under B6, 0.168 KA relative to UGCAUGU.
Regarding B7, the binding signal is 0.118 KA relative to UGCAUGU.
Under B8 stands 0.114 KA relative to UGCAUGU; under B9, 0.0954 KA relative to UGCAUGU; under B10, 0.0815 KA relative to UGCAUGU.
In the case of B11 it was 0.112 KA relative to UGCAUGU; in that of B12, 0.0578 KA relative to UGCAUGU.
Under B13 stands 0.0761 KA relative to UGCAUGU; under B14, 0.0739 KA relative to UGCAUGU; under B15, 0.0863 KA relative to UGCAUGU.
For B16, the binding signal is 0.111 KA relative to UGCAUGU.
Under B17 stands 0.0882 KA relative to UGCAUGU.
Consider B18, for which the binding signal is 0.0776 KA relative to UGCAUGU.
With B19, the binding signal was 0.122 KA relative to UGCAUGU.
Under B20 stands 0.152 KA relative to UGCAUGU.
For the molecule B21, the binding signal is 0.0811 KA relative to UGCAUGU.
For B22, the binding signal was 0.0605 KA relative to UGCAUGU.
In the case of B23 it was 0.0773 KA relative to UGCAUGU; in that of B24, 0.0832 KA relative to UGCAUGU.
In the case of B25 it was 0.103 KA relative to UGCAUGU; in that of B26, 0.1 KA relative to UGCAUGU.
In the case of B27 it was 0.0875 KA relative to UGCAUGU; in that of B28, 0.159 KA relative to UGCAUGU; in that of B29, 0.119 KA relative to UGCAUGU.
On to B30, for which the binding signal was 0.0889 KA relative to UGCAUGU.
In the case of B31 it was 0.0874 KA relative to UGCAUGU.
